About 2,200 (0.71%) of roughly 310,000 compounds showed an effect of 50% or more. Effects have a minus sign here. This is one part of the list.

In the assay the target is human ether-à-go-go-related gene (hERG) potassium channel (human, UniProt Q12809). Kind of assay: primary screen, population patch clamp on CHO cells stably expressing hERG.
Chain of human ether-à-go-go-related gene (hERG) potassium channel (Q12809 whole entry, looked up): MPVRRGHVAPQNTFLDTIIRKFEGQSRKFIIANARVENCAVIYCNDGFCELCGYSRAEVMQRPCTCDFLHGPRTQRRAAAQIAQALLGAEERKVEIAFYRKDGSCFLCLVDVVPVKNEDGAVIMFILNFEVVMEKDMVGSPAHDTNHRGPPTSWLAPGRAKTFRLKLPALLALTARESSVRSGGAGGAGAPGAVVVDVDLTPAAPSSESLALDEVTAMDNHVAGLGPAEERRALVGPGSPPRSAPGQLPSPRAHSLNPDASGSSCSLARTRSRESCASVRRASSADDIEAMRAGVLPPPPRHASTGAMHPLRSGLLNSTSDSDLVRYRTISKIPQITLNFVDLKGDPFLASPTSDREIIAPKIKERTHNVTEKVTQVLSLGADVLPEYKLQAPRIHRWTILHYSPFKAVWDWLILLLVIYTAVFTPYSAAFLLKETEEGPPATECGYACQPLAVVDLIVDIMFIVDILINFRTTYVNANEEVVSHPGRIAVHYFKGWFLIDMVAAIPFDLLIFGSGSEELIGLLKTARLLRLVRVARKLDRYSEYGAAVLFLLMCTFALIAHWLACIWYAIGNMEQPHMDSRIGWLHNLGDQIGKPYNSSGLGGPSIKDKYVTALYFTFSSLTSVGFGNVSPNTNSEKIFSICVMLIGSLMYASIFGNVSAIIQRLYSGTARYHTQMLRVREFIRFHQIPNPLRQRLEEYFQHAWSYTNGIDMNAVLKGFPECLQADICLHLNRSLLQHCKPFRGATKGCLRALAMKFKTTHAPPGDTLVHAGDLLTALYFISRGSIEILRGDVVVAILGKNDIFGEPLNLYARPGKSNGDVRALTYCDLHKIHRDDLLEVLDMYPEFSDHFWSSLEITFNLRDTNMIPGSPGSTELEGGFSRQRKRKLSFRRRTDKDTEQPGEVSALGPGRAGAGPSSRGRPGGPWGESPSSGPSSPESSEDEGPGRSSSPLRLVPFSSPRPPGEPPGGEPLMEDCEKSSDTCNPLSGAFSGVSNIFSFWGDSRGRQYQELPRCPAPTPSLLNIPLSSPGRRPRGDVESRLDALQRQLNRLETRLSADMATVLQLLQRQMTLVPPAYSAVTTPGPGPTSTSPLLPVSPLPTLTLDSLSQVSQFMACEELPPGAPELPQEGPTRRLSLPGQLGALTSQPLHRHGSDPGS
Turning to `Cl.Fc1ccc(C(OCCN2CCN(CCCc3ccccc3)CC2)c2ccc(F)cc2)cc1`, the “hERG current change (%, negative = inhibition) at 1uM” value is on record as -71.3%.
With `Cc1nnc(N/N=C/c2c(Cl)cccc2Cl)n1N.Cl` the figure was 10.8%.
With `CCc1cccc(CC)c1-n1c(SCc2cc(=O)n3ccsc3n2)nnc1-c1cccnc1` the figure was -8.44%; with `N#C/C(=C1/CCCN1)c1ccccn1`, -4.39%.
With `CCN(CC)C(=O)CSc1nc(-c2ccccc2)cc(=O)[nH]1` the figure was 6.7%.
Consider `COc1ccc(NC(=O)COc2ccccc2C(=O)NCC(c2ccccc2)N(C)C)cc1Cl` (centres unmarked), for which the “hERG current change (%, negative = inhibition) at 1uM” value is given as 12.1%.
With `Cc1cc(C(=O)NN=C2CCCCC2)c2ccccc2n1` the figure was 2.77%.
With `O=C(COC(=O)c1ccc(O)cc1)Nc1cc(C(F)(F)F)ccc1N1CCOCC1` the figure was -7.14%; with `O=C(NNS(=O)(=O)c1ccc(Cl)cc1)c1cc(-c2ccccc2)n[nH]1`, 11.1%.
With `COc1cccc(C2N=C(c3ccccc3C)NO2)c1OC` (centres unmarked) the figure was 9.22%; with `Cc1ccc(CN2CCCOCCS2(=O)=O)cc1`, 15.7%; with `CCOC(=O)c1ccc(NC(=O)c2nc[nH]c2C(=O)NCCCNC(=O)c2[nH]cnc2C(=O)Nc2ccc(C(=O)OCC)cc2)cc1`, 13.8%.
As to `Cc1cc(CNC(=O)Nc2ccc3c(c2)OCO3)nn1C`, the “hERG current change (%, negative = inhibition) at 1uM” value was found to be 11.2%.
With `CCC(C)N=C1Sc2nc3ccc(C)cc3cc2CN1CCOC` (centres unmarked) the figure was -60.4%.
To `O=c1oc2ccccc2c(NCc2ccccc2)c1[N+](=O)[O-]` belongs -9.23%.
Regarding `CC(=O)Nc1ccc(N2C(=O)CCC2=O)cc1C`, the “hERG current change (%, negative = inhibition) at 1uM” value was 11.1%.
With `O=C(Nc1nc2ccccc2n1Cc1ccccc1)c1ccc(COc2ccccc2[N+](=O)[O-])o1` the figure was 1.01%; with `Cn1c(SCC(=O)N2c3ccccc3Sc3ccc(Cl)cc32)nnc1-c1ccco1`, -7.51%; with `C/C(=N\NC(N)=O)c1c(O)n(C)c(=O)n(C)c1=O`, 11.5%.
To `COCC(=O)Nc1ccc(Br)cc1C` belongs 10.5%; to `Cc1ccc(NC(=O)CN2C(=O)C(C)Oc3ccccc32)nc1` (centres unmarked), 2.45%.
With `CCn1cnc2c1c(=O)[nH]c(=O)n2Cc1ccccc1` the figure was 14.6%; with `CCOC(=O)CNC(=O)Nc1ccccc1C(=O)OC`, 14.5%; with `COC(=O)C1=C(c2cc3ccccc3s2)C[C@@H]2CC[C@H]1N2C(=O)NCCO`, 8.67%.
With `O=C(O)c1cccc(S(=O)(=O)N2Cc3ccccc3C2)c1`, the “hERG current change (%, negative = inhibition) at 1uM” value is 3.06%.
To `O=C(c1ccc(F)cc1)N1CCCN(c2nc(-c3ccccc3)ns2)CC1` belongs -0.372%.
For the compound `C[C@H](NC(=O)c1ccco1)C(=O)Nc1ccc2c(c1)OCO2`, the “hERG current change (%, negative = inhibition) at 1uM” value amounted to 9.98%.
With `COc1ccc(CCNC(=O)CCCCCNC(=O)N2CCn3c2nc2ccccc23)cc1OC` the figure was 3.74%; with `CN1CCCC(OC(=O)CCCC(=O)OC2CCCN(C)C2)C1.Cl` (centres unmarked), -11.6%; with `CCOC(=O)Nc1ccc2c(COC(=O)c3ccccc3O)cc(=O)oc2c1`, 7.73%.
Consider `Cc1ccccc1/C=C/C(=O)NCC(=O)N1CCC(N(C)C2CCCCC2C)CC1` (centres unmarked), for which the “hERG current change (%, negative = inhibition) at 1uM” value is given as -36.1%.
In the case of `Cc1cccn2c(=O)c3cc(C(=O)NCCN4CCOCC4)c(=N)n(Cc4cccnc4)c3nc12`, the “hERG current change (%, negative = inhibition) at 1uM” value amounted to 9.95%.
For `CCc1ccc(NC(=O)c2ccc(NC3=NC4CS(=O)(=O)CC4S3)cc2)cc1` (centres unmarked), the “hERG current change (%, negative = inhibition) at 1uM” value is reported as 7.01%.
With `CCOC(=O)C1=C(C)NC(=O)NC1c1c(O)ccc2ccccc12` (centres unmarked) the figure was 9.33%; with `CS(=O)(=O)Nc1ccc(S(=O)(=O)NCCc2ccccc2)cc1`, -16.8%; with `CCCn1ncc(CN2CCC(Oc3ccc(C(=O)N4CCCC4)cc3)CC2)c1C`, 3.14%.
To `CCOC(=O)c1c(C)oc2c1c(C(c1cccnc1)N1CCCCC1)c(O)c1ccccc12` (centres unmarked) belongs 0.0286%.
With `Cc1ccc(NC(=O)c2cccs2)cc1NC(=O)c1cccc(F)c1`, the “hERG current change (%, negative = inhibition) at 1uM” value is 6.73%.
To `CCCCCC(=O)N1CCCC1` belongs 12.5%; to `Cc1nn(C)c(C)c1S(=O)(=O)N1CCCC(C(=O)NCCc2ccc(Cl)cc2)C1` (centres unmarked), 6.79%.
With `COCCN(C(=O)CCN1C(=O)C2CC=CCC2C1=O)c1c(N)n(CC(C)C)c(=O)[nH]c1=O` (centres unmarked) the figure was 11.6%; with `Nc1nc(SCC(=O)C23CC4CC(CC(C4)C2)C3)n[nH]1`, -1.55%.
To `NC1(C#Cc2ccc3oc(=O)c(-n4cc(-c5ccsc5)nn4)cc3c2)CCCCC1` belongs 2.7%; to `CCO[C@H]1OC(C(=O)N2CCCCCCC2)=C[C@@H](c2ccc(C(F)(F)F)cc2)[C@@H]1CCCO`, 6.5%.
Take `COc1cc(-c2nc(-c3ccccc3)c(-c3ccc(F)cc3)[nH]2)cc2c1OCO2`: the “hERG current change (%, negative = inhibition) at 1uM” value turned out to be 10%.
With `O=S1(=O)CCC(NC(=S)N2CCCCC2)C1` (centres unmarked), the “hERG current change (%, negative = inhibition) at 1uM” value is 6.33%.
As to `O=C(COC(=O)C1C2CC3OC(=O)C1C3C2)Nc1cccc(C(F)(F)F)c1` (centres unmarked), the “hERG current change (%, negative = inhibition) at 1uM” value was 1.06%.
With `O=C(COC(=O)c1ccco1)NCc1ccc(Cl)cc1` the figure was 9.29%; with `Nc1ccc(-c2nc3ccc(-c4nc5ccccc5o4)cc3[nH]2)cc1`, 13%; with `N=c1c(S(=O)(=O)c2ccc(F)cc2)cc2c(=O)n3ccccc3nc2n1CC1CCCO1` (centres unmarked), -2.33%.
To `Cc1ccc(C(=O)NC(NC(=S)Nc2ccc(S(N)(=O)=O)cc2)C(Cl)(Cl)Cl)cc1` (centres unmarked) belongs 0.919%.
With `Cc1cccc(-n2nnnc2SCC(=O)c2cc(C)n(Cc3ccco3)c2C)c1` the figure was -5.03%.
Take `COc1ccc(C)c2sc(N(CCN(C)C)C(=O)/C=C/c3cccs3)nc12.Cl`: the “hERG current change (%, negative = inhibition) at 1uM” value was determined as 7.34%.
With `C=C(C)c1cccc(C(C)(C)NC(=O)N2CCN(CC)CC2)c1` the figure was 5.16%.
With `Cc1ccnc2c1ccc1c(C)ccnc12.O` the figure was 8.07%; with `COC(=O)C1=C(C)Nc2nc3ccccc3n2C1c1ccccc1F` (centres unmarked), 8.31%.
To `O=C(CCn1c(=O)oc2ccccc21)n1c(=O)oc2ccccc21` belongs 15.9%; to `C=CCn1cc(C(=O)OC)c(=O)c2cc(S(=O)(=O)N(CC)CC)ccc21`, 10.1%; to `Cc1ccc(O)c(C(=O)CC(=O)c2ccccc2Cl)c1`, 16%.
As to `O=C(COCc1cc(-c2ccc3c(c2)OCO3)on1)N1CCCCC1`, the “hERG current change (%, negative = inhibition) at 1uM” value amounted to 7.6%.
With `Cc1ccc(N(CC(=O)NC(C)(C)C)C(=O)CNC(=O)c2cccs2)c(C)c1` the figure was 10.7%.
With `CCOc1cccc(-c2nc3cc(C)ccc3o2)c1` the figure was 18.5%; with `CC(=O)Nc1cccc(NC(=O)c2c(-c3c(Cl)cccc3Cl)noc2C)c1`, 3.61%.
To `CC(NC(=O)c1ccccc1O)c1ccccc1` (centres unmarked) belongs 11.2%.
On to `COc1ccc(/C=N/NC(=O)CNC(=O)c2ccc(S(=O)(=O)N3CCOCC3)cc2)cc1OC`, for which the “hERG current change (%, negative = inhibition) at 1uM” value came to 5.4%.
With `CCOc1ccc(C2c3cc(OC)c(OC)cc3CC(=O)N2c2ccccc2)cc1` (centres unmarked) the figure was -9.55%.
With `Cc1ccn2c(NC3CCCCC3)c(C)nc2c1` the figure was 5.08%.
With `Nc1nonc1C(=O)NCCNS(=O)(=O)c1ccc(Br)cc1` the figure was -3.34%; with `CCCCCN(C(=O)CCC(=O)OCc1ccccc1F)c1c(N)n(CCCC)c(=O)[nH]c1=O`, 13.6%.
For `O=C(COc1ccc([N+](=O)[O-])cc1)NNC(=O)c1cccs1`, the “hERG current change (%, negative = inhibition) at 1uM” value was 8.47%.
With `O=C(Nc1nc2ccc([N+](=O)[O-])cc2s1)c1ccco1` the figure was 23.7%; with `CN(c1ccc(C(=O)Nc2ccc(Cl)cn2)cc1)S(=O)(=O)c1ccccc1`, -0.904%; with `Cc1ccccc1/C=C1\OC(=O)c2ccccc21`, 4.12%.
With `CCn1cnc2cc(NCc3cccs3)ccc21` the figure was 9.39%; with `N/C(=N\OC(=O)Cc1cccs1)c1ccc(Cl)cc1`, 11.1%.
With `CCCc1nnc(NC(=O)CCC(=O)N2CCN(Cc3ccc(OC)c(F)c3)CC2)s1` the figure was 7.31%.
In the case of `O=C(c1ccccc1)N1CCN(c2ncccn2)CC1`, the “hERG current change (%, negative = inhibition) at 1uM” value stood at 16.1%.
To `O=c1c(-c2cc3ccccc3o2)[n+]([O-])c2ccccc2n1OCc1ccccn1` belongs -3.66%.
With `COCCN(C(=O)COC(=O)c1cccnc1Cl)c1c(N)n(Cc2ccccc2)c(=O)[nH]c1=O`, the “hERG current change (%, negative = inhibition) at 1uM” value was 16.8%.
To `O=C(Nc1ccccc1F)c1cnccn1` belongs 18.6%; to `Cc1ccccc1/C=C/c1nc2ccccc2c(=O)n1Cc1ccccc1`, 2.74%.
To `CCCC(=O)Nc1ccc2c(c1)C(=O)NC2=O` belongs 5.06%.
With `O=C(COC(=O)c1ccc[nH]c1=O)NCCc1ccc(Cl)cc1Cl` the figure was 9.68%; with `Cc1cccc(C(=O)NNC(=O)CCC(=O)Nc2cccc(Cl)c2C)c1`, 6.38%; with `COCCNC(=O)C(c1ccc(O)cc1)N(Cc1cccs1)C(=O)CCC(=O)Nc1ccccn1` (centres unmarked), 16.6%.
For `Cc1nc2cc(CO)ccc2s1`, the “hERG current change (%, negative = inhibition) at 1uM” value is 5.86%.
To `CCc1ccc(C)c(OC(=O)c2cncc(Br)c2)c1` belongs 12.1%; to `Cn1c(=S)n(CCC(=O)O)c2ccccc21`, 16.1%.
Turning to `Cc1ccc(S(=O)(=O)N2CCOCC2)cc1NC(=O)CSc1nnnn1C`, the “hERG current change (%, negative = inhibition) at 1uM” value is on record as 13.4%.

The values above are taken from article PMC4336329 (PLoS ONE, 2015).
